Measurements: PMC7771230
These are yes or no findings as the source states them, for the method shown. Binding seen in cells or lysates may run through a third protein. Some results given as binding are weak or reduced against the parent protein; the word gives no strength. Tags and fused reporters may be left off the sequences shown.

What was measured:
[1] = biological target: HA-tagged NiV P N-terminal residues 1 to 407 (PNT) (Nipah virus) (UniProt Q9IK91); test: co-IP
[2] = biological target: HA-tagged Nipah virus (NiV) phosphoprotein (P) (Nipah virus) (UniProt Q9IK91); test: co-IP

FLAG-tagged STAT2 (from UniProt P52630 1-851)
binding [1]: binds
binding [2]: binds

FLAG-tagged STAT3 (from UniProt P40763-1 1-770)
binding [1]: no binding
binding [2]: no binding

FLAG-tagged STAT5a (from UniProt P42229-1 1-794)
binding [1]: no binding
binding [2]: no binding

FLAG-tagged STAT5b (from UniProt P51692 1-787)
binding [1]: no binding
binding [2]: no binding

B1: FLAG-tagged STAT4 (protein, UniProt Q14765 1-748)
chain: MSQWNQVQQLEIKFLEQVDQFYDDNFPMEIRHLLAQWIENQDWEAASNNETMATILLQNLLIQLDEQLGRVSKEKNLLLIHNLKRIRKVLQGKFHGNPMHVAVVISNCLREERRILAAANMPVQGPLEKSLQSSSVSERQRNVEHKVAAIKNSVQMTEQDTKYLEDLQDEFDYRYKTIQTMDQSDKNSAMVNQEVLTLQEMLNSLDFKRKEALSKMTQIIHETDLLMNTMLIEELQDWKRRQQIACIGGPLHNGLDQLQNCFTLLAESLFQLRRQLEKLEEQSTKMTYEGDPIPMQRTHMLERVTFLIYNLFKNSFVVERQPCMPTHPQRPLVLKTLIQFTVKLRLLIKLPELNYQVKVKASIDKNVSTLSNRRFVLCGTNVKAMSIEESSNGSLSVEFRHLQPKEMKSSAGGKGNEGCHMVTEELHSITFETQICLYGLTIDLETSSLPVVMISNVSQLPNAWASIIWYNVSTNDSQNLVFFNNPPPATLSQLLEVMSWQFSSYVGRGLNSDQLHMLAEKLTVQSSYSDGHLTWAKFCKEHLPGKSFTFWTWLEAILDLIKKHILPLWIDGYVMGFVSKEKERLLLKDKMPGTFLLRFSESHLGGITFTWVDHSESGEVRFHSVEPYNKGRLSALPFADILRDYKVIMAENIPENPLKYLYPDIPKDKAFGKHYSSQPCEVSRPTERGDKGYVPSVFIPISTIRSDSTEPHSPSDLLPMSPSVYAVLRENLSPTTIETAMKSPYSAE
binding [1]: binds
binding [2]: binds
